From patent US20140024596A1, “DISEASE INHIBITING AGENT” (NITTA GELATIN INC., priority 2010, published 2014)
At least one peptide structure holds a part that was inferred or is arguable (an end, a ring closure or a residue). Marks after values point to notes of the source that are not given here. Some entries repeat one wording, which the source may state once for all of them. Non-standard residues stand in square brackets, D forms with d. Residues, ends and D or L forms follow the SMILES beside them. Hyp = O=C(O)[C@@H]1C[C@@H](O)CN1

Tests used:
[1] = tested on: osteoclast (mouse primary bone marrow cell culture); test: Evaluation Test 1: osteoclast differentiation culture on plastic dish (TRAP-positive multinucleated giant cells); format: cell-based; details: final concentration 625 μM, 6 days culture, control (blank) = 100, n = 6
Protocol: Evaluation was made in conformance with an osteoclast differentiation culture method by Kobayashi Y. et al. [J. Bone Miner. Metab. (2004) 22: p. 318-328]. […] As a control, TRAP inhibiting activity when no peptide was added (blank) was also examined.

[2] = tested on: osteoclast (precursor cells of osteoclasts and bone marrow stromal cells on ivory piece); test: Evaluation Test 1: Pit assay, osteoclast cultured on ivory piece; format: cell-based, mouse; details: control (blank) = 100, n = 6; for Relative number of TRAP-positive multinucleated giant cells (osteoclasts) by cultivation on ivory piece (%): cultured about 1 week on ivory piece; for Relative number of Pit (%): resorption cavities on ivory piece, about 1 week
Protocol: Further, the inhibition degree of differentiation and activation of osteoclast by each of the peptide molecules, and amino acids was evaluated by the following Pit assay. In brief, the Pi assay in which osteoclast is cultured on an ivory piece was conducted in conformance with Kakudo S, et al J. Bone Miner. Metab. (1996) 14: 129-136. The concrete procedure is as follows. […] Then, after removing the cells from the ivory piece with a silicone rubber policeman, the ivory piece was stained with an acid hematoxylin solution for several minutes. At this time, the number of TRAP staining positive multinucleated giant cells (osteoclast) was counted by TRAP staining, and a relative number with respect to the number of cells in control (blank) was calculated. Then, the Pit number (number of resorption cavity) by osteoclast was counted under a microscope, and the degree of inhibiting osteoclast by each peptide to be tested was indicated by a relative ratio to blank (control).

[3] = tested on: Male Wistar rat, skin wound; test: Evaluation Test 4: recovery of tropocollagen amount in dermis of skin after depilatory skin wound; format: in vivo; details: feed plus intragastric administration, n = 4
[4] = tested on: femur-tibia joint of C57BL/6J mice; test: Evaluation Test 6: oral feed, femur-tibia joint evaluation (micro CT, hematoxylin sections); format: in vivo, mouse; details: oral feed with peptide and potassium phosphate, three weeks; for Characteristic pathological finding in joint cancellous bone part in comparison with N group / Pathological score (articular cartilage part): n = 4; for Relative thickness of articular cartilage: n = 4, N group 1.0
[5] = tested on: femur-tibia joint of C57BL/6J mice (C group); test: Evaluation Test 7: injection into femur-tibia joint space of C group mice, pathological evaluation; format: in vivo, mouse; details: n = 4
[6] = tested on: luciferase in bone metastatic focus of human prostate cancer cell strain PC-3M (PC-3M-lu); test: Examples 19-27: GL3siRNA complex with carrier, tail vein, bone metastasis model, IVIS luciferase imaging; format: in vivo, nude mouse; details: GL3siRNA mixed with carrier (synthetic peptide 10 μM) as complex, n = 3
[7] = tested on: luciferase in bone metastatic focus of human prostate cancer cell strain PC-3M (PC-3M-lu); test: Examples 28-36: co-administration, carrier intragastric then GL3siRNA tail vein, bone metastasis model; format: in vivo, nude mouse; details: co-administration: 0.1 g carrier intragastric, GL3siRNA tail vein after 30 minutes, n = 3
[8] = 0 day after depilatory treatment
[9] = 1 day after depilatory treatment
[10] = 2 days after depilatory treatment
[11] = 4 days after depilatory treatment
[12] = After 1 week from injection of 5 mmol/L solution (0.5 mL) into joint space
[13] = After 3 weeks from injection of 5 mmol/L solution (0.5 mL) into joint space

Structure (SMILES) | Relative area of TRAP-positive multinucleated giant cells (osteoclasts) by cultivation on plastic dish (%) [1] [%] | Relative number of TRAP-positive multinucleated giant cells (osteoclasts) by cultivation on plastic dish (%) [1] [%] | Relative number of TRAP-positive multinucleated giant cells (osteoclasts) by cultivation on ivory piece (%) [2] [%] | Relative number of Pit (%) [2] [%] | Skin collagen amount in skin wound recovery process (ratio of tropocollagen to total collagen amount)(%) [3, 8] | Skin collagen amount in skin wound recovery process (ratio of tropocollagen to total collagen amount)(%) [3, 9] | Skin collagen amount in skin wound recovery process (ratio of tropocollagen to total collagen amount)(%) [3, 10] | Skin collagen amount in skin wound recovery process (ratio of tropocollagen to total collagen amount)(%) [3, 11] | Characteristic pathological finding in joint cancellous bone part in comparison with N group [4] | Pathological score (articular cartilage part) [4] | Relative thickness of articular cartilage [4] | Pathological score (articular cartilage part) [5, 12] | Relative thickness of articular cartilage [5, 12] | Characteristic pathological finding in joint cancellous bone part in comparison with N group ([5]; After 1 week from injection) | Pathological score (articular cartilage part) [5, 13] | Relative thickness of articular cartilage [5, 13] | Characteristic pathological finding in joint cancellous bone part in comparison with N group ([5]; After 3 weeks from injection) | Luciferase expression ratio in bone after 28 days from administration (%) [6] [%] | Luciferase expression ratio in bone after 28 days from administration (%) [7] [%]
O=C(O)CNC(=O)[C@@H]1C[C@@H](O)CN1C(=O)[C@@H]1CCCN1C(=O)CNC(=O)[C@@H]1C[C@@H](O)CN1C(=O)[C@@H]1CCCN1 [(POG)2, (Pro-Hyp-Gly)2] (H-P[Hyp]GP[Hyp]G-OH; N-terminus and C-terminus assumed) | 2 ± 1 | 3 ± 1 | 3 ± 2 | 3 ± 1 | 2.3 ± 0.3^b % | 3.0 ± 0.2^c % | 3.5 ± 0.3^c % | 5.3 ± 0.3^d % | Same as on the left. | 0.2 ± 0.1 | 1.0 ± 0.2 | 0.4 ± 0.07 | 0.8 ± 0.2 | a) | 0.2 ± 0.02 | 1.0 ± 0.1 | b) | 22 ± 0.6 | 26 ± 0.9
NCC(=O)N1CCC[C@H]1C(=O)N1C[C@H](O)C[C@H]1C(=O)NCC(=O)N1CCC[C@H]1C(=O)N1C[C@H](O)C[C@H]1C(=O)NCC(=O)N1CCC[C@H]1C(=O)N1C[C@H](O)C[C@H]1C(=O)NCC(=O)O [G(POG)3, Gly-(Pro-Hyp-Gly)3] (H-GP[Hyp]GP[Hyp]GP[Hyp]G-OH) | 10 ± 2 | 10 ± 2 | 19 ± 4 | 16 ± 5 | 2.2 ± 0.3^b % | 2.5 ± 0.4^b % | 2.9 ± 0.2^c % | 4.4 ± 0.3^d % | Same as on the left. | 0.5 ± 0.3 | 0.7 ± 0.2 | 0.6 ± 0.06 | 0.7 ± 0.8 | a) | 0.3 ± 0.02 | 0.9 ± 0.1 | b) | 25 ± 0.9 | 33 ± 1.2
O=C(O)CNC(=O)[C@@H]1C[C@@H](O)CN1C(=O)[C@@H]1CCCN1C(=O)CNC(=O)[C@@H]1C[C@@H](O)CN1C(=O)[C@@H]1CCCN1C(=O)CNC(=O)[C@@H]1C[C@@H](O)CN1C(=O)[C@@H]1CCCN1 [(POG)3, (Pro-Hyp-Gly)3] (H-P[Hyp]GP[Hyp]GP[Hyp]G-OH) | 2 ± 1 | 4 ± 2 | 4 ± 3 | 3 ± 1 | 2.3 ± 0.2^b % | 2.9 ± 0.3^c % | 3.3 ± 0.2^c % | 5.2 ± 0.2^d % | Same as on the left. | 0.2 ± 0.05 | 0.9 ± 0.1 | 0.5 ± 0.04 | 0.8 ± 0.2 | a) | 0.2 ± 0.03 | 1.0 ± 0.1 | b) | 21 ± 0.4 | 27 ± 0.8
O=C(O)CNC(=O)[C@@H]1C[C@@H](O)CN1C(=O)[C@@H]1CCCN1C(=O)CNC(=O)[C@@H]1C[C@@H](O)CN1C(=O)[C@@H]1CCCN1C(=O)CNC(=O)[C@@H]1C[C@@H](O)CN1C(=O)[C@@H]1CCCN1C(=O)CNC(=O)[C@@H]1C[C@@H](O)CN1C(=O)[C@@H]1CCCN1 [(POG)4, (Pro-Hyp-Gly)4] (H-P[Hyp]GP[Hyp]GP[Hyp]GP[Hyp]G-OH) | 1 ± 1 | 2 ± 1 | 3 ± 2 | 2 ± 1 | 2.4 ± 0.3^b % | 2.9 ± 0.1^c % | 3.3 ± 0.3^c % | 5.1 ± 0.2^d % | – | 0.3 ± 0.05 | 0.9 ± 0.1 | 0.5 ± 0.04 | 0.8 ± 0.2 | a) | 0.2 ± 0.03 | 1.0 ± 0.1 | b) | 19 ± 0.3 | 30 ± 1.2
CC(C)C[C@H](NC(=O)[C@H](Cc1c[nH]cn1)NC(=O)CNC(=O)[C@H](CC(=O)O)NC(=O)CNC(=O)[C@@H](N)CCC(=O)O)C(=O)NCC(=O)N[C@@H](CCCCN)C(=O)N1CCC[C@H]1C(=O)NCC(=O)N[C@@H](CCCNC(=N)N)C(=O)N1C[C@H](O)C[C@H]1C(=O)NCC(=O)N[C@@H](CCC(=O)O)C(=O)O [EGDGHLGKPGROGE] (H-EGDGHLGKPGR[Hyp]GE-OH) | 2 ± 1 | 3 ± 2 | 4 ± 3 | 2 ± 1 | 2.4 ± 0.3^b % | 2.7 ± 0.4^b % | 2.9 ± 0.2^bc % | 5.2 ± 0.4^d % | – | 0.3 ± 0.1 | 0.9 ± 0.2 | 0.5 ± 0.07 | 0.8 ± 0.3 | a) | 0.2 ± 0.05 | 1.0 ± 0.3 | b) | 16 ± 0.2 | 26 ± 1.1
